In the supplement of paper PMC8813932:
Structures can show the parent of a compound that is named as a salt. ± gives the standard deviation of the averaged measurements. The list shows a part of the results. Most values come without repeats; read them as rough.

Assays:
Experiment in all cases: log2 surviving fraction relative to plate median (drug vs vehicle, or drug+dl922-947 vs dl922-947 alone); ovarian cancer lines: OVCAR4 is platinum-sensitive while Ov4Cis resists cisplatin and Ov4Carbo carboplatin; higher = more cell survival
Conditions in all cases: compound concentration: 10 uM, 192 h
OVCAR4 = tested on: OVCAR4
Ov4Carbo = tested on: Ov4Carbo
Ov4Cis = tested on: Ov4Cis
[1] = dl922-947 oncolytic adenovirus co-treatment: MOI 10
[2] = dl922-947 oncolytic adenovirus co-treatment: none

| Compound | log2 surviving fraction (OVCAR4; [1]) | log2 surviving fraction (OVCAR4; [2]) | log2 surviving fraction (Ov4Carbo; [1]) | log2 surviving fraction (Ov4Carbo; [2]) | log2 surviving fraction (Ov4Cis; [1]) | log2 surviving fraction (Ov4Cis; [2]) |
| --- | --- | --- | --- | --- | --- | --- |
| COc1cc2c(cc1O)CC[C@@H]1[C@@H]2CC[C@]2(C)[C@@H](O)CC[C@@H]12 [2-Methoxyestradiol] | -6.908 ± 0.033 | -6.34 ± 6.2 | -5.05 | -8.77 | -5.59 | -9.52 |
| CC[C@H]1OC(=O)[C@H](C)[C@@H](O[C@H]2C[C@@](C)(OC)[C@@H](O)[C@H](C)O2)[C@H](C)[C@@H](O[C@@H]2O[C@H](C)C[C@H](N(C)C)[C@H]2O)[C@](C)(OC)C[C@@H](C)C(=O)[C@H](C)[C@@H](O)[C@]1(C)O [Clarithromycin (Biaxin, Klacid)] | 0.0431 ± 0.15 | -0.257 ± 1.4 | 0.359 | 0.207 | 0.24 | 1.54 |
| CCCCN1CCCCC1C(=O)Nc1c(C)cccc1C (stereo not given) [Bupivacaine hydrochloride (Marcain)] | 0.0814 ± 1.6 | -1.04 ± 0.5 | -0.244 | 1.14 | -1.74 | -0.379 |
| CN(C)CCC(c1ccccc1)c1ccccn1 (stereo not given) [Pheniramine Maleate] | -1.21 ± 0.33 | -0.473 ± 0.54 | -0.674 | 0.0741 | -0.746 | -0.443 |
| O=C1[C@@H]2[C@H]3CC[C@H](C3)[C@@H]2C(=O)N1C[C@@H]1CCCC[C@H]1CN1CCN(c2nsc3ccccc23)CC1 [Lurasidone HCl] | -1.11 ± 0.5 | -0.259 ± 0.73 | -1.6 | -0.731 | -1.14 | -3.91 |
| Clc1ccccc1C(c1ccccc1)(c1ccccc1)n1ccnc1 [Clotrimazole (Canesten)] | -0.311 ± 0.097 | -2.36 ± 0.17 | -0.267 | -4.11 | -0.348 | -0.979 |
| COCCOC(=O)C1=C(C)NC(C)=C(C(=O)OC/C=C/c2ccccc2)C1c1cccc([N+](=O)[O-])c1 (stereo not given) [Cilnidipine] | -2.96 ± 4.7 | -0.98 ± 1.2 | -2.07 | -1.52 | -0.00237 | 0.0267 |
| CC(C)NCC(O)COc1ccc(CCOCC2CC2)cc1 (stereo not given) [Betaxolol (Betoptic)] | 0.552 ± 0.21 | 0.292 ± 0.27 | -0.647 | -0.655 | 0.179 | 0.44 |
| O=c1oc2c(O)c(O)cc3c(=O)oc4c(O)c(O)cc1c4c23 [Ellagic acid] | -0.247 ± 0.15 | 0.222 ± 0.053 | 0.418 | -0.542 | 0.272 | -0.37 |
| Clc1ccc2nsnc2c1NC1=NCCN1 [Tizanidine HCl] | 2.4 ± 2.4 | 1.49 ± 0.31 | 1.63 | -0.338 | 1.09 | 0.931 |
| CNCC(O)c1ccc(O)c(O)c1 (racemic) [DL-Adrenaline] | -0.699 ± 0.25 | -1.4 ± 2 | -1.47 | -0.365 | -0.623 | -0.403 |
| Cc1cc2c(cc1S(N)(=O)=O)S(=O)(=O)CCC2 [Meticrane] | 0.00345 ± 0.76 | 0.0352 ± 0.52 | -0.329 | -0.261 | -0.216 | -0.93 |
| CCCCCCCN(CC)CCCC(O)c1ccc(NS(C)(=O)=O)cc1 (stereo not given) [Ibutilide fumarate] | -0.594 ± 0.54 | -0.29 ± 0.14 | -0.261 | -0.502 | -0.689 | -0.228 |
| N#Cc1c(N(CC(=O)O)CC(=O)O)sc(C(=O)O)c1CC(=O)O [Strontium ranelate (Protelos)] | -0.166 ± 0.85 | 0.288 ± 1.4 | -0.0275 | 0.00723 | 0.377 | 0.138 |
| CCCN(CCC)CCc1cccc2c1CC(=O)N2 [Ropinirole HCl] | -0.185 ± 0.026 | 0.416 ± 0.49 | -1 | -0.0191 | -0.252 | 0.0905 |
| C/C=C(\C)C(=O)N[C@@H](c1ccccc1)[C@@H](O)C(=O)O[C@H]1C[C@@]2(O)[C@@H](OC(=O)c3ccccc3)[C@@H]3[C@]4(OC(C)=O)CO[C@@H]4C[C@H](O)[C@@]3(C)C(=O)[C@H](OC(C)=O)C(=C1C)C2(C)C [Cephalomannine] | -7.26 ± 0.079 | -9.9 ± 5.1 | -5.96 | -9.84 | -5.6 | -9.98 |
| CC[C@@H](C(N)=O)N1CCCC1=O [Levetiracetam] | -0.0271 ± 0.62 | 0.919 ± 0.56 | 0.08 | -0.555 | 0.847 | 0.312 |
| C[C@H]1NC(=O)NC1=O [Methylhydantoin-5-(D)] | 0.527 ± 1.1 | 0.774 ± 1.1 | -0.114 | 0.443 | 0.955 | -0.206 |
| Nc1nc2c(ncn2COC(CO)CO)c(=O)[nH]1 [Ganciclovir] | -0.333 ± 0.11 | 0.266 ± 0.23 | 0.7 | -0.1 | 0.0248 | -0.412 |
| CCOC(=O)[C@H](CCc1ccccc1)N[C@@H](C)C(=O)N1CCC[C@H]1C(=O)O [Enalapril maleate (Vasotec)] | 0.268 ± 0.27 | -0.0481 ± 0.58 | -0.308 | 0.565 | -0.257 | 0.479 |
| CC=CC1=C(C(=O)O)N2C(=O)[C@@H](NC(=O)[C@H](N)c3ccc(O)cc3)[C@H]2SC1 [Cefprozil hydrate (Cefzil)] | -0.347 ± 0.39 | -0.711 ± 0.57 | 0.371 | -0.798 | -0.267 | -0.23 |
| CN(C)C(=N)NC(=N)N [Metformin hydrochloride (Glucophage)] | 0.5766 ± 3.7e-05 | 0.0251 ± 0.031 | 0.568 | 0.449 | 0.415 | 0.765 |
| Nc1nc2n[nH]nc2c(=O)[nH]1 [Azaguanine-8] | -0.875 ± 0.47 | -3.17 ± 0.81 | -1.84 | -6.37 | -0.526 | -1.05 |

| Compound | log2 surviving fraction (OVCAR4; [1]) | log2 surviving fraction (OVCAR4; [2]) | log2 surviving fraction (Ov4Carbo; [1]) | log2 surviving fraction (Ov4Carbo; [2]) | log2 surviving fraction (Ov4Cis; [1]) | log2 surviving fraction (Ov4Cis; [2]) |
| --- | --- | --- | --- | --- | --- | --- |
| COC(=O)C1=C(C)NC(C)=C(C(=O)OC2CCCN(Cc3ccccc3)C2)C1c1cccc([N+](=O)[O-])c1 (stereo not given) [Benidipine hydrochloride] | -0.409 ± 0.11 | -1.82 ± 0.14 | -0.384 | -1.83 | -0.846 | -2.2 |
| N[C@@H]1CCCCN(c2c(F)cc3c(=O)c(C(=O)O)cn(C4CC4)c3c2Cl)C1 [Besifloxacin HCl (Besivance)] | -0.782 ± 2.1 | 0.0725 ± 1.7 | -1.58 | 0.274 | 0.524 | -1.87 |
| Cc1cccc(C)c1NC(=O)C1CCCCN1C (stereo not given) [Mepivacaine HCl] | 0.25 ± 0.36 | 0.367 ± 0.11 | 0.462 | -0.492 | 0.268 | 0.795 |
| COC(=O)C1=C(C)NC(C)=C(C(=O)OCCN(C)Cc2ccccc2)C1c1cccc([N+](=O)[O-])c1 (stereo not given) [Nicardipine HCl] | -0.654 ± 0.51 | -0.65 ± 0.39 | 0.0535 | -0.839 | -0.193 | -0.0148 |
| Nc1ccc(/N=N/c2ccccc2)c(N)n1 [Phenazopyridine HCl] | 0.247 ± 0.74 | -0.852 ± 0.66 | 0.452 | 0.233 | 1.06 | 0.617 |
| CCCC(CCC)C(=O)O [Valproic acid sodium salt (Sodium valproate)] | 0.942 ± 0.67 | 1.21 ± 0.27 | 1.49 | 2.27 | 1.56 | 1.33 |
| CC(C)C(=O)Oc1ccc(CO)cc1[C@H](CCN(C(C)C)C(C)C)c1ccccc1 [Fesoterodine fumarate (Toviaz)] | 0.013 ± 0.93 | -0.301 ± 0.012 | 0.348 | 0.397 | -0.825 | -0.642 |
| CC(C)/N=c1\cc2n(-c3ccc(Cl)cc3)c3ccccc3nc-2cc1Nc1ccc(Cl)cc1 [Clofazimine] | 0.179 ± 0.36 | -1.17 ± 1.3 | -1.44 | -1.13 | 0.0856 | -1.48 |
| CCC(NC(C)C)C(O)c1ccc(O)c(O)c1 (stereo not given) [Isoetharine Mesylate] | 0.154 ± 0.38 | 0.207 ± 0.68 | -0.338 | 0.415 | -0.353 | 0.267 |
| CCC[C@@H]1C[C@@H](C(=O)N[C@@H]([C@H]2O[C@H](SC)[C@H](OP(=O)(O)O)[C@@H](O)[C@H]2O)[C@H](C)Cl)N(C)C1 [Clindamycin phosphate] | -0.942 ± 0.81 | -0.914 ± 0.36 | 0.293 | 0.393 | 0.434 | -0.262 |
| CC1CC(OC(=O)C(O)c2ccccc2)CC(C)(C)C1 (stereo not given) [Cyclandelate] | 0.0607 ± 0.54 | -0.147 ± 0.99 | 0.163 | 0.2 | 0.127 | 0.226 |
| CCN(CC)CCOc1ccc(C(=C(Cl)c2ccccc2)c2ccccc2)cc1 [Clomifene citrate (Serophene)] | -5.63 ± 0.92 | -4.24 ± 2.2 | -3.09 | -5.93 | -7.75 | -11.7 |
| [I-].[K+] [Potassium iodide] | -0.78 ± 0.48 | -0.334 ± 0.46 | 0.233 | 0.671 | -0.593 | -0.258 |
| OC(CNCC(O)C1CCc2cc(F)ccc2O1)C1CCc2cc(F)ccc2O1 (stereo not given) [Nebivolol (Bystolic)] | -2.5 ± 0.85 | -3.84 ± 2.5 | -3.4 | -4.38 | -6.76 | -7.88 |
| C=C1[C@H](CO)[C@@H](O)C[C@@H]1n1cnc2c(=O)[nH]c(N)nc21 [Entecavir hydrate] | 0.348 ± 0.4 | 1.72 ± 1.5 | -0.753 | 2.93 | 0.0631 | 2.04 |
| CN(C)CCCN1c2ccccc2Sc2ccc(C(F)(F)F)cc21 [Triflupromazine HCl] | -1.95 ± 1.3 | 0.377 ± 0.67 | -4.86 | -0.248 | -2.37 | -2.9 |
| C=C(NC(=O)C(=C)NC(=O)c1csc(C2=N[C@@H]3c4csc(n4)[C@H]4NC(=O)c5csc(n5)[C@H]([C@](C)(O)[C@@H](C)O)NC(=O)[C@H]5CSC(=N5)/C(=C/C)NC(=O)[C@H]([C@@H](C)O)NC(=O)c5csc(n5)[C@]3(CC2)NC(=O)[C@H](C)NC(=O)C(=C)NC(=O)[C@H](C)NC(=O)[C@H]([C@@H](C)CC)N[C@@H]2C=Cc3c([C@H](C)O)cc(nc3[C@H]2O)C(=O)O[C@@H]4C)n1)C(N)=O [Thiostrepton] | -6.174 ± 0.054 | -7.66 ± 10 | -7.88 | -11.1 | -6.06 | -14.8 |
| O=C(NCCN1CCOCC1)c1ccc(Cl)cc1 [Moclobemide] | -0.332 ± 0.48 | -0.697 ± 0.29 | -0.317 | -0.738 | 0.353 | -0.39 |
| CC(C)C[C@H](NC(=O)[C@H](Cc1ccccc1)NC(=O)c1cnccn1)B(O)O [Bortezomib (Velcade)] | -10.2 ± 0.76 | -12.5 ± 9.9 | -9.67 | -15.3 | -10.9 | -17.5 |
| O=C1CN2Cc3c(ccc(Cl)c3Cl)N=C2N1 [Anagrelide HCl] | -0.299 ± 0.029 | -0.107 ± 0.21 | 0.512 | -0.601 | 0.211 | 0.206 |
| N=C(N)c1ccc(OCCCCCOc2ccc(C(=N)N)cc2)cc1 [Pentamidine] | -3.34 ± 1.4 | -4.68 ± 1.8 | -6.02 | -9.21 | -2.11 | -2.82 |
| CCCCCCCCCCCCCCCC[N+](C)(C)CCN(Cc1ccc(OC)cc1)c1ncccn1 [Thonzonium Bromide] | -9.98 ± 0.54 | -8.25 ± 11 | -8.62 | -11.9 | -9.62 | -15.3 |
